The results in this text go back to the supplement of paper PMC4604168 (melanoma cell lines).

SMILES strings stand for the structures. The list shows a part of the results. Single values are uncertain, as repeats are few or missing.
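Note: cell number obtained by counting DAPI-stained nuclei in high-throughput microscope images with image analysis software, screen run in 1,536-well plates.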

The test concerns IPC-298. In words: cell count relative to DMSO control; melanoma cells; higher = more viable cells. The settings on record: library dose: low library concentration; 72 h.
For `Nc1ncn([C@H]2C[C@H](O)[C@@H](CO)O2)c(=O)n1` [decitabine] + CC(C)CCN1c2nc(Nc3cc(F)c(O)c(F)c3)ncc2N(C)C(=O)C1C [BID1870] (first compound 0.1 µM, partner dose 0.2 µM), the cell count was determined as 66.5%.
On to `Nc1ccn([C@@H]2O[C@H](CO)[C@@H](O)C2(F)F)c(=O)n1` [gemcitabine] + CC(C)CCN1c2nc(Nc3cc(F)c(O)c(F)c3)ncc2N(C)C(=O)C1C [BID1870] (first compound 0.0004 µM, partner dose 0.2 µM), for which the cell count stood at 91.1%.
The value for `Nc1ncn([C@H]2C[C@H](O)[C@@H](CO)O2)c(=O)n1` [decitabine] + CC1(C)NC(=O)N(c2ccc([N+](=O)[O-])c(C(F)(F)F)c2)C1=O [nilutamide] (first compound 0.1 µM, partner dose 1 µM) was 57.5%.
For `CC(=O)O[C@@]12CO[C@@H]1C[C@H](O)[C@@]1(C)C(=O)[C@H](O)C3=C(C)[C@@H](OC(=O)[C@H](O)[C@@H](NC(=O)OC(C)(C)C)c4ccccc4)C[C@@](O)([C@@H](OC(=O)c4ccccc4)[C@H]21)C3(C)C` [Docetaxel] + CCc1ccc(CCOc2ccc(CC3SC(=O)NC3=O)cc2)nc1 [pioglitazone] (first compound 0.0001 µM, partner dose 2 µM) the value was 66.5%; for `Nc1ncn([C@H]2C[C@H](O)[C@@H](CO)O2)c(=O)n1` [decitabine] + Cc1cc(N2CCOCC2)cc2[nH]c(-c3c(NC[C@@H](O)c4cccc(Cl)c4)cc[nH]c3=O)nc12 [BMS536924] (first compound 0.1 µM, partner dose 0.2 µM), 64.9%; for `Nc1ncn([C@H]2C[C@H](O)[C@@H](CO)O2)c(=O)n1` [decitabine] + O=S(=O)(c1ccccc1)N(CC(F)(F)F)c1ccc(C(O)(C(F)(F)F)C(F)(F)F)cc1 [T0901317] (first compound 0.1 µM, partner dose 1.4 µM), 60.2%.
For `Nc1ncn([C@H]2C[C@H](O)[C@@H](CO)O2)c(=O)n1` [decitabine] + COc1cc(N2CCC(N3CCN(C)CC3)CC2)ccc1Nc1ncc(Cl)c(Nc2ccccc2S(=O)(=O)C(C)C)n1 [NVP-TAE684] (first compound 0.1 µM, partner dose 0.08 µM) the value was 69.9%.
For `CC(=O)c1c(C)c2cnc(Nc3ccc(N4CCNCC4)cn3)nc2n(C2CCCC2)c1=O` [palbociclib] + Oc1nc(-c2ccc(C(F)(F)F)cc2)nc2c1CSCC2 [XAV939] (first compound 0.04 µM, partner dose 2 µM), the cell count worked out at 86.6%.
For the compound `Nc1ccn([C@@H]2O[C@H](CO)[C@@H](O)C2(F)F)c(=O)n1` [gemcitabine] + O=c1cc(-c2cccc3c2Sc2ccccc2S3)oc(N2CCOCC2)c1 [KU55933] (first compound 0.0004 µM, partner dose 1 µM), the cell count is 92.3%.
For `Nc1ncn([C@H]2C[C@H](O)[C@@H](CO)O2)c(=O)n1` [decitabine] + N#Cc1c(O)c2c(-c3ccc(-c4ccccc4O)cc3)csc2[nH]c1=O [A769662] (first compound 0.1 µM, partner dose 2 µM) the value was 71.1%; for `Nc1nc(F)nc2c1ncn2[C@@H]1O[C@H](CO)[C@@H](O)[C@@H]1O` [fludarabine] + CN(C)S(=O)(=O)c1ccc2c(c1)/C(=C/c1cc3c([nH]1)CCCC3)C(=O)N2 [SU6656] (first compound 0.2 µM, partner dose 0.4 µM), 90.6%; for `Nc1ncn([C@H]2C[C@H](O)[C@@H](CO)O2)c(=O)n1` [decitabine] + CCc1ccc(CCOc2ccc(CC3SC(=O)NC3=O)cc2)nc1 [pioglitazone] (first compound 0.1 µM, partner dose 2 µM), 58%.
The value for `CC(=O)c1c(C)c2cnc(Nc3ccc(N4CCNCC4)cn3)nc2n(C2CCCC2)c1=O` [palbociclib] + CN(NC(=O)CC(=O)NN(C)C(=S)c1ccccc1)C(=S)c1ccccc1 [STA4783] (first compound 0.04 µM, partner dose 0.006 µM) was 83.5%; that for `CC(=O)O[C@@]12CO[C@@H]1C[C@H](O)[C@@]1(C)C(=O)[C@H](O)C3=C(C)[C@@H](OC(=O)[C@H](O)[C@@H](NC(=O)OC(C)(C)C)c4ccccc4)C[C@@](O)([C@@H](OC(=O)c4ccccc4)[C@H]21)C3(C)C` [Docetaxel] + CS(=O)(=O)CCNCc1ccc(-c2ccc3ncnc(Nc4ccc(OCc5cccc(F)c5)c(Cl)c4)c3c2)o1 [lapatinib] (first compound 0.0001 µM, partner dose 0.8 µM) was 53.5%.
`CC(=O)O[C@@]12CO[C@@H]1C[C@H](O)[C@@]1(C)C(=O)[C@H](O)C3=C(C)[C@@H](OC(=O)[C@H](O)[C@@H](NC(=O)OC(C)(C)C)c4ccccc4)C[C@@](O)([C@@H](OC(=O)c4ccccc4)[C@H]21)C3(C)C` [Docetaxel] + c1cc(-c2cnn3cc(-c4ccc(OCCN5CCCCC5)cc4)cnc23)ccn1 [Dorsomorphin] (first compound 0.0001 µM, partner dose 0.4 µM) yielded a cell count of 60.2%.
Turning to `CO[C@H]1C[C@@H]2CC[C@@H](C)[C@@](O)(O2)C(=O)C(=O)N2CCCC[C@H]2C(=O)O[C@H]([C@H](C)C[C@@H]2CC[C@@H](OCCO)[C@H](OC)C2)CC(=O)[C@H](C)/C=C(\C)[C@@H](O)[C@@H](OC)C(=O)[C@H](C)C[C@H](C)/C=C/C=C/C=C/1C` [everolimus] + COc1cc2ncnc(Nc3ccc(Oc4ccccc4)cc3)c2cc1OC [SrcI1] (first compound 0.02 µM, partner dose 2 µM), the cell count stood at 75.3%.
The value for `Nc1ncn([C@H]2C[C@H](O)[C@@H](CO)O2)c(=O)n1` [decitabine] + COC(=O)c1sccc1S(=O)(=O)Nc1ccc(Nc2ccccc2)cc1OC [GSK0660] (first compound 0.1 µM, partner dose 1 µM) was 71.2%.
The value for `Nc1nc(F)nc2c1ncn2[C@@H]1O[C@H](CO)[C@@H](O)[C@@H]1O` [fludarabine] + CCN(CC)CCCCNc1ncc2cc(-c3cc(OC)cc(OC)c3)c(NC(=O)NC(C)(C)C)nc2n1 [PD173074] (first compound 0.2 µM, partner dose 0.1 µM) was 90%.
The value for `Nc1ccn([C@@H]2O[C@H](CO)[C@@H](O)C2(F)F)c(=O)n1` [gemcitabine] + Oc1nc(-c2ccc(C(F)(F)F)cc2)nc2c1CSCC2 [XAV939] (first compound 0.0004 µM, partner dose 2 µM) was 80.4%; that for `Nc1ccn([C@@H]2O[C@H](CO)[C@@H](O)C2(F)F)c(=O)n1` [gemcitabine] + COc1ccc2c(c1)CCC1C2CCC2(C)C(NCCCCCCN3C(=O)C=CC3=O)CCC12 [U73122] (first compound 0.0004 µM, partner dose 0.4 µM) was 82.4%; that for `CC(=O)c1c(C)c2cnc(Nc3ccc(N4CCNCC4)cn3)nc2n(C2CCCC2)c1=O` [palbociclib] + O=c1cc(-c2cccc3c2Sc2ccccc2S3)oc(N2CCOCC2)c1 [KU55933] (first compound 0.04 µM, partner dose 1 µM) was 84.1%.
`CC(=O)c1c(C)c2cnc(Nc3ccc(N4CCNCC4)cn3)nc2n(C2CCCC2)c1=O` [palbociclib] + Cc1cc([N+](=O)[O-])ccc1NS(=O)(=O)c1cc(Cl)ccc1Cl [FH535] (first compound 0.04 µM, partner dose 1 µM) displayed a cell count of 76.5%.
On to `Nc1ncn([C@H]2C[C@H](O)[C@@H](CO)O2)c(=O)n1` [decitabine] + CCCCCCCCCCCC1=C(O)C(=O)C=C(O)C1=O [Embelin] (first compound 0.1 µM, partner dose 1.2 µM), for which the cell count worked out at 67.2%.
For `Nc1ccn([C@@H]2O[C@H](CO)[C@@H](O)C2(F)F)c(=O)n1` [gemcitabine] + CCCCCCCCCCCC1=C(O)C(=O)C=C(O)C1=O [Embelin] (first compound 0.0004 µM, partner dose 1.2 µM) the value was 94%; for `Nc1nc(F)nc2c1ncn2[C@@H]1O[C@H](CO)[C@@H](O)[C@@H]1O` [fludarabine] + CC(C)CCN1c2nc(Nc3cc(F)c(O)c(F)c3)ncc2N(C)C(=O)C1C [BID1870] (first compound 0.2 µM, partner dose 0.2 µM), 90.2%.
For `CO[C@H]1C[C@@H]2CC[C@@H](C)[C@@](O)(O2)C(=O)C(=O)N2CCCC[C@H]2C(=O)O[C@H]([C@H](C)C[C@@H]2CC[C@@H](OCCO)[C@H](OC)C2)CC(=O)[C@H](C)/C=C(\C)[C@@H](O)[C@@H](OC)C(=O)[C@H](C)C[C@H](C)/C=C/C=C/C=C/1C` [everolimus] + COc1ccc(-c2ccc3c(N4CCOCC4)nc(N4C[C@@H](C)O[C@@H](C)C4)nc3n2)cc1CO [KU0063794] (first compound 0.02 µM, partner dose 0.02 µM) the value was 76.8%; for `CC(=O)O[C@@]12CO[C@@H]1C[C@H](O)[C@@]1(C)C(=O)[C@H](O)C3=C(C)[C@@H](OC(=O)[C@H](O)[C@@H](NC(=O)OC(C)(C)C)c4ccccc4)C[C@@](O)([C@@H](OC(=O)c4ccccc4)[C@H]21)C3(C)C` [Docetaxel] + CCN(CC)CCCCNc1ncc2cc(-c3cc(OC)cc(OC)c3)c(NC(=O)NC(C)(C)C)nc2n1 [PD173074] (first compound 0.0001 µM, partner dose 0.1 µM), 69.5%.
